# Test results from patent publication US9486506B2 (Novo Nordisk A/S, priority 2011, dated 2016).
# For at least one compound, name, drawing or mass did not settle the structure. Numbered stars: 1 amine (or outer) side, 2 acyl side, 3 side chain; on linkers, the order of the positions; unused ones are H or OH. Side chains are listed from the residue outwards. Peptide text beside a SMILES is read from it. * marks the point of attachment. C18 diacid = O=C(O)CCCCCCCCCCCCCCCCC(=O)*; C16 diacid = O=C(O)CCCCCCCCCCCCCCC(=O)*; γGlu = O=C(O)[C@H](CCC(=O)[*:2])N[*:1]; AEEA = NCCOCCOCC(=O)O
# Test: Assay (II) ThT fibrillation assay for physical stability
# Format: physicochemical
# Details: pH 7.5
row,SMILES,ThT assay [Lagtime]
1,"CC(C)C[C@H](NC(=O)[C@H](Cc1ccc(O)cc1)NC(=O)[C@H](CCCCN)NC(=O)[C@H](CO)NC(=O)[C@H](Cc1ccc(O)cc1)NC(=O)[C@H](CC(=O)O)NC(=O)[C@H](CO)NC(=O)[C@@H](NC(=O)[C@H](Cc1ccccc1)NC(=O)[C@@H](NC(=O)CNC(=O)[C@H](CCC(N)=O)NC(=O)[C@H](CO)NC(=O)[C@@H](N)Cc1c[nH]cn1)[C@@H](C)O)[C@@H](C)O)C(=O)N[C@@H](CC(=O)O)C(=O)N[C@@H](C)C(=O)N[C@@H](CCCNC(=N)N)C(=O)N[C@@H](CCCNC(=N)N)C(=O)N[C@@H](C)C(=O)N[C@@H](CCC(N)=O)C(=O)N[C@@H](CC(=O)O)C(=O)N[C@@H](Cc1ccccc1)C(=O)N[C@H](C(=O)N[C@@H](CCCCNC(=O)CC[C@H](NC(=O)CC[C@H](NC(=O)COCCOCCNC(=O)COCCOCCNC(=O)CC[C@H](NC(=O)CCCCCCCCCCCCCCCCC(=O)O)C(=O)O)C(=O)O)C(=O)O)C(=O)N[C@@H](Cc1c[nH]c2ccccc12)C(=O)N[C@@H](CC(C)C)C(=O)N[C@@H](CC(C)C)C(=O)N[C@@H](CO)C(=O)N[C@H](C(=O)O)[C@@H](C)O)C(C)C [Example 43, N^ε24-[(4S)-4-carboxy-4-[[(4S)-4-carboxy-4-[[2-[2-[2-[[2-[2-[2-[[(4S)-4-carboxy-4-(17-carboxyheptadecanoylamino)butanoyl]amino]ethoxy]ethoxy]acetyl]amino]ethoxy]ethoxy]acetyl]amino]butanoyl]amino]butanoyl]-[Ala16,Lys24,Leu27,Ser28]-Glucagon]",19 h
2,"CC(C)C[C@H](NC(=O)[C@H](CC(=O)O)NC(=O)[C@H](CC(C)C)NC(=O)[C@H](Cc1ccc(O)cc1)NC(=O)[C@H](CCCNC(=N)N)NC(=O)[C@H](CO)NC(=O)[C@H](Cc1ccc(O)cc1)NC(=O)[C@H](CC(=O)O)NC(=O)[C@H](CO)NC(=O)[C@@H](NC(=O)[C@H](Cc1ccccc1)NC(=O)[C@@H](NC(=O)CNC(=O)[C@H](CCC(N)=O)NC(=O)[C@H](CO)NC(=O)[C@@H](N)Cc1c[nH]cn1)[C@@H](C)O)[C@@H](C)O)C(=O)N[C@@H](CCCNC(=N)N)C(=O)N[C@@H](CCCNC(=N)N)C(=O)N[C@@H](C)C(=O)N[C@@H](CCC(N)=O)C(=O)N[C@@H](CC(=O)O)C(=O)N[C@@H](Cc1ccccc1)C(=O)N[C@H](C(=O)N[C@@H](CCCCNC(=O)CC[C@H](NC(=O)CC[C@H](NC(=O)COCCOCCNC(=O)COCCOCCNC(=O)CC[C@H](NC(=O)CCCCCCCCCCCCCCC(=O)O)C(=O)O)C(=O)O)C(=O)O)C(=O)N[C@@H](Cc1c[nH]c2ccccc12)C(=O)N[C@@H](CC(C)C)C(=O)N[C@@H](CC(C)C)C(=O)N[C@@H](CO)C(=O)N[C@H](C(=O)O)[C@@H](C)O)C(C)C [Example 25, N^ε24-[(4S)-4-carboxy-4-[[(4S)-4-carboxy-4-[[2-[2-[2-[[2-[2-[2-[[(4S)-4-carboxy-4-(15-carboxypentadecanoylamino)butanoyl]amino]ethoxy]ethoxy]acetyl]amino]ethoxy]ethoxy]acetyl]amino]butanoyl]amino]butanoyl]-[Arg^12,Leu^16,Lys^24,Leu^27,Ser^28]-Glucagon] (H-HSQGTFTSDYSRYLDLRRAQDFVK([γGlu-γGlu-AEEA-AEEA-γGlu-C16 diacid])WLLST-OH)",45 h
3,"CC(C)C[C@H](NC(=O)[C@H](Cc1ccc(O)cc1)NC(=O)[C@H](CCCNC(=N)N)NC(=O)[C@H](CO)NC(=O)[C@H](Cc1ccc(O)cc1)NC(=O)[C@H](CC(=O)O)NC(=O)[C@H](CO)NC(=O)[C@@H](NC(=O)[C@H](Cc1ccccc1)NC(=O)[C@@H](NC(=O)CNC(=O)[C@H](CCC(N)=O)NC(=O)[C@H](CO)NC(=O)[C@@H](N)Cc1c[nH]cn1)[C@@H](C)O)[C@@H](C)O)C(=O)N[C@@H](CC(=O)O)C(=O)N[C@@H](CCC(=O)O)C(=O)N[C@@H](CCCNC(=N)N)C(=O)N[C@@H](CCCNC(=N)N)C(=O)N[C@@H](C)C(=O)N[C@@H](CCC(N)=O)C(=O)N[C@@H](CC(=O)O)C(=O)N[C@@H](Cc1ccccc1)C(=O)N[C@H](C(=O)N[C@@H](CCCCNC(=O)CC[C@H](NC(=O)CC[C@H](NC(=O)COCCOCCNC(=O)COCCOCCNC(=O)CC[C@H](NC(=O)CCCCCCCCCCCCCCC(=O)O)C(=O)O)C(=O)O)C(=O)O)C(=O)N[C@@H](Cc1c[nH]c2ccccc12)C(=O)N[C@@H](CC(C)C)C(=O)N[C@@H](CC(C)C)C(=O)N[C@@H](CO)C(=O)N[C@H](C(=O)O)[C@@H](C)O)C(C)C [Example 94, N^ε24-[(4S)-4-carboxy-4-[[(4S)-4-carboxy-4-[[2-[2-[2-[[2-[2-[2-[[(4S)-4-carboxy-4-(15-carboxypentadecanoylamino)butanoyl]amino]ethoxy]ethoxy]acetyl]amino]ethoxy]ethoxy]acetyl]amino]butanoyl]amino]butanoyl]-[Arg12,Glu16,Lys24,Leu27,Ser28]-Glucagon] (H-HSQGTFTSDYSRYLDERRAQDFVK([γGlu-γGlu-AEEA-AEEA-γGlu-C16 diacid])WLLST-OH; N-terminus and C-terminus assumed)",45 h
4,"CC(C)C[C@H](NC(=O)[C@H](Cc1c[nH]c2ccccc12)NC(=O)[C@H](CCCCNC(=O)COCCOCCNC(=O)CC[C@H](NC(=O)CC[C@H](NC(=O)COCCOCCNC(=O)CC[C@H](NC(=O)CCCCCCCCCCCCCCCCC(=O)O)C(=O)O)C(=O)O)C(=O)O)NC(=O)[C@@H](NC(=O)[C@H](Cc1ccccc1)NC(=O)[C@H](CC(=O)O)NC(=O)[C@H](CCC(N)=O)NC(=O)[C@H](C)NC(=O)[C@H](CCCNC(=N)N)NC(=O)[C@H](CCCNC(=N)N)NC(=O)[C@@H](NC(=O)[C@H](CC(=O)O)NC(=O)[C@H](CC(C)C)NC(=O)[C@H](Cc1ccc(O)cc1)NC(=O)[C@H](CCCCN)NC(=O)[C@H](CO)NC(=O)[C@H](Cc1ccc(O)cc1)NC(=O)[C@H](CC(=O)O)NC(=O)[C@H](CO)NC(=O)[C@@H](NC(=O)[C@H](Cc1ccccc1)NC(=O)[C@@H](NC(=O)CNC(=O)[C@H](CCC(N)=O)NC(=O)[C@H](CO)NC(=O)[C@@H](N)Cc1c[nH]cn1)[C@@H](C)O)[C@@H](C)O)[C@@H](C)O)C(C)C)C(=O)N[C@@H](CC(C)C)C(=O)N[C@@H](CO)C(=O)N[C@H](C(=O)O)[C@@H](C)O [Example 40, N^ε24-[2-[2-[2-[[(4S)-4-carboxy-4-[[(4S)-4-carboxy-4-[[2-[2-[2-[[(4S)-4-carboxy-4-(17-carboxyheptadecanoylamino)butanoyl]amino]ethoxy]ethoxy]acetyl]amino]butanoyl]amino]butanoyl]amino]ethoxy]ethoxy]acetyl]-[Thr16,Lys24,Leu27,Ser28]-Glucagon]",45 h
5,"CC(C)C[C@H](NC(=O)[C@H](Cc1ccc(O)cc1)NC(=O)[C@H](CCCCN)NC(=O)[C@H](CO)NC(=O)[C@H](Cc1ccc(O)cc1)NC(=O)[C@H](CC(=O)O)NC(=O)[C@H](CO)NC(=O)[C@@H](NC(=O)[C@H](Cc1ccccc1)NC(=O)[C@@H](NC(=O)CNC(=O)[C@H](Cc1c[nH]cn1)NC(=O)[C@H](CO)NC(=O)[C@@H](N)Cc1c[nH]cn1)[C@@H](C)O)[C@@H](C)O)C(=O)N[C@@H](CC(=O)O)C(=O)N[C@@H](CO)C(=O)N[C@@H](CCCNC(=N)N)C(=O)N[C@@H](CCCNC(=N)N)C(=O)N[C@@H](C)C(=O)N[C@@H](CCC(N)=O)C(=O)N[C@@H](CC(=O)O)C(=O)N[C@@H](Cc1ccccc1)C(=O)N[C@H](C(=O)N[C@@H](CCCCNC(=O)CC[C@H](NC(=O)CC[C@H](NC(=O)COCCOCCNC(=O)COCCOCCNC(=O)CC[C@H](NC(=O)CCCCCCCCCCCCCCCCC(=O)O)C(=O)O)C(=O)O)C(=O)O)C(=O)N[C@@H](Cc1c[nH]c2ccccc12)C(=O)N[C@@H](CC(C)C)C(=O)N[C@@H](CC(C)C)C(=O)N[C@@H](CC(N)=O)C(=O)N[C@H](C(=O)O)[C@@H](C)O)C(C)C [Example 5, N^ε24-[(4S)-4-carboxy-4-[[(4S)-4-carboxy-4-[[2-[2-[2-[[2-[2-[2-[[(4S)-4-carboxy-4-(17-carboxyheptadecanoylamino)butanoyl]amino]ethoxy]ethoxy]acetyl]amino]ethoxy]ethoxy]acetyl]amino]butanoyl]amino]butanoyl]-[His^3,Lys^24,Leu^27]-Glucagon]",45 h
6,"CC(C)C[C@H](NC(=O)[C@H](Cc1ccc(O)cc1)NC(=O)[C@H](CCCNC(=N)N)NC(=O)[C@H](CO)NC(=O)[C@H](Cc1ccc(O)cc1)NC(=O)[C@H](CC(=O)O)NC(=O)[C@H](CO)NC(=O)[C@@H](NC(=O)[C@H](Cc1ccccc1)NC(=O)[C@@H](NC(=O)CNC(=O)[C@H](CCC(N)=O)NC(=O)[C@H](CO)NC(=O)[C@@H](N)Cc1c[nH]cn1)[C@@H](C)O)[C@@H](C)O)C(=O)N[C@@H](CCC(=O)O)C(=O)N[C@@H](CO)C(=O)N[C@@H](CCCNC(=N)N)C(=O)N[C@@H](CCCNC(=N)N)C(=O)N[C@@H](C)C(=O)N[C@@H](CCC(N)=O)C(=O)N[C@@H](CCC(=O)O)C(=O)N[C@@H](Cc1ccccc1)C(=O)N[C@H](C(=O)N[C@@H](CCCCNC(=O)CC[C@H](NC(=O)CC[C@H](NC(=O)COCCOCCNC(=O)COCCOCCNC(=O)CC[C@H](NC(=O)CCCCCCCCCCCCCCCCC(=O)O)C(=O)O)C(=O)O)C(=O)O)C(=O)N[C@@H](Cc1c[nH]c2ccccc12)C(=O)N[C@@H](CC(C)C)C(=O)N[C@@H](CC(C)C)C(=O)N[C@@H](CO)C(=O)N[C@H](C(=O)O)[C@@H](C)O)C(C)C [Example 52, N^ε24-[(4S)-4-carboxy-4-[[(4S)-4-carboxy-4-[[2-[2-[2-[[2-[2-[2-[[(4S)-4-carboxy-4-(17-carboxyheptadecanoylamino)butanoyl]amino]ethoxy]ethoxy]acetyl]amino]ethoxy]ethoxy]acetyl]amino]butanoyl]amino]butanoyl]-[Arg12,Glu15,Glu21,Lys24,Leu27,Ser28]-Glucagon] (H-HSQGTFTSDYSRYLESRRAQEFVK([γGlu-γGlu-AEEA-AEEA-γGlu-C18 diacid])WLLST-OH)",45 h
